Reference: the supplement of paper PMC9446081
About 220 (0.56%) of roughly 39,000 compounds showed activity. The list shows a part of the results.

tested on: Escherichia coli K-12 BW25113; experiment: relative growth (OD600 normalised to plate interquartile mean) (fraction); higher = less growth inhibition, active = 0.2 or less; settings: 50 µM; LB; incubation time: overnight (16-24 h)
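Further: static incubation at 37 °C against the wild-type strain, values averaged over two biological replicates.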

Q: Which relative growth does the source give for `COc1ccc(S(=O)(=O)Nc2ccc3c(c2)CC(=O)N([C@H](C)CO)C[C@H](C)[C@H](CN(C)Cc2ccc(Cl)c(Cl)c2)O3)cc1` here?
A: inactive: 1.01

Q: How did the relative growth turn out when `CC1(C)CC2C1CCC1(C)OC1CCC2(C)O` (centres undefined) was run?
A: inactive: 0.967

Q: With `CNC[C@H]1OCCCC[C@@H](C)Oc2ccc(NS(=O)(=O)c3c(C)noc3C)cc2C(=O)N([C@H](C)CO)C[C@H]1C` as the compound, how does the relative growth read?
A: inactive: 0.981

Q: How did the relative growth turn out when `COc1cc(/C=C/C(=O)NCCCNC(=O)/C=C/c2cc(OC)c(OC)c(OC)c2)cc(OC)c1OC` was run?
A: inactive: 1

Q: `C[C@@H]1CN([C@H](C)CO)C(=O)Cc2cc(NS(=O)(=O)c3cccs3)ccc2O[C@@H]1CN(C)C(=O)Nc1cccc2ccccc12` was tested. Which relative growth did it give?
A: inactive: 0.976

Q: With `Cc1noc(C)c1NC(=O)Nc1ccc2c(c1)CC(=O)N([C@H](C)CO)C[C@H](C)[C@H](CN(C)S(=O)(=O)c1cn(C)cn1)O2` as the compound, how does the relative growth read?
A: inactive: 0.976

Q: `CO[C@H]1CN(C)C(=O)c2ccc(NC(C)=O)cc2OC[C@H](C)N(S(=O)(=O)c2cn(C)cn2)C[C@@H]1C` was tested. Which relative growth did it give?
A: inactive: 0.965

Q: For `Cc1ccc(S(=O)(=O)N(C)C[C@H]2OCCCC[C@@H](C)Oc3ccc(NC(=O)CCC(F)(F)F)cc3C(=O)N([C@@H](C)CO)C[C@@H]2C)cc1`, which relative growth is on record?
A: inactive: 0.974

Q: With `C[C@@H]1CN([C@@H](C)CO)C(=O)c2cc(NS(=O)(=O)c3ccc(Cl)cc3)ccc2O[C@@H](C)CCCCO[C@@H]1CN(C)C(=O)NC1CCCCC1` as the compound, how does the relative growth read?
A: inactive: 1.01

Q: `C[C@H](CO)N1C[C@H](C)[C@@H](CN(C)S(=O)(=O)c2cn(C)cn2)OCCCC[C@H](C)Oc2ccc(NS(=O)(=O)c3cn(C)cn3)cc2C1=O` was tested. Which relative growth did it give?
A: inactive: 0.997

Q: Which relative growth does the source give for `C[C@@H]1CN([C@@H](C)CO)C(=O)c2cccc(NS(=O)(=O)c3cn(C)cn3)c2O[C@H]1CN(C)C(=O)NC1CCCCC1` here?
A: inactive: 0.984

Q: `CC(=O)N1Cc2cc(C(=O)NCc3cc(F)cc(F)c3)nc(-c3cccc(C4=CCCC4)c3)c2[C@H]1CCO` was tested. Which relative growth did it give?
A: inactive: 0.982

Q: With `C[C@H](CO)N1C[C@H](C)[C@@H](CN(C)S(C)(=O)=O)Oc2ccc(NC(=O)Cc3cn(C)c4ccccc34)cc2C1=O` as the compound, how does the relative growth read?
A: inactive: 0.992

Q: For `C[C@H](CO)N1C[C@H](C)[C@@H](CN(C)Cc2ccc(C(=O)O)cc2)OCCCC[C@H](C)Oc2ccc(NC(=O)Nc3ccc(F)cc3)cc2C1=O`, which relative growth is on record?
A: inactive: 0.994

Q: For `CC1=CCc2c(cc3oc(C)cc(=O)c3c2O)OC1`, which relative growth is on record?
A: inactive: 0.978

Q: Which relative growth does the source give for `Cc1cccc(S(=O)(=O)N2C[C@H](O)COC[C@@H]3O[C@@H](CC(=O)NCc4ccncn4)CC[C@H]32)c1` here?
A: inactive: 1

Q: For `CC[C@H]1OC[C@@H]2CN(C(=O)CN(C)C)CC[C@H]21`, which relative growth is on record?
A: inactive: 0.984

Q: For `C[C@@H]1CN([C@@H](C)CO)C(=O)Cc2cc(NC(=O)Cc3ccccc3)ccc2O[C@H]1CN(C)S(=O)(=O)c1ccccc1`, which relative growth is on record?
A: inactive: 0.996

Q: For `CC(=O)n1cc([C@H]2C=C(C(=O)N3CCN(Cc4ccccc4)CC3)O[C@@H](OCc3ccc(COC(=O)NCCCCCC(=O)NO)cc3)C2)c2ccccc21`, which relative growth is on record?
A: inactive: 1.01

Q: Which relative growth does the source give for `C[N+]1(C)C[C@H](O)[C@H](C(=O)O)C1` here?
A: inactive: 1.02

Q: For `Cc1ccc(S(=O)(=O)N2C[C@@H](O)COC[C@@H]3O[C@H](CC(=O)N[C@H]4CCN(Cc5ccccc5)C4)CC[C@H]32)cc1`, which relative growth is on record?
A: inactive: 0.989

Q: Which relative growth does the source give for `C[C@H](CO)N1C[C@H](C)[C@H](CN(C)Cc2ccc(Cl)c(Cl)c2)Oc2c(NS(=O)(=O)c3cccs3)cccc2C1=O` here?
A: inactive: 0.986

Q: With `Cc1ccccc1S(=O)(=O)N1C[C@@H](O)COC[C@H]2O[C@@H](CC(=O)N3CCC(Cc4ccccc4)CC3)CC[C@@H]21` as the compound, how does the relative growth read?
A: inactive: 1.01

Q: Which relative growth does the source give for `C[C@@H]1CN([C@@H](C)CO)C(=O)c2cc(NS(=O)(=O)c3ccc(F)cc3)ccc2O[C@@H]1CN(C)C(=O)Nc1cccc2ccccc12` here?
A: inactive: 1.04

Q: How did the relative growth turn out when `C[C@H]1CN([C@@H](C)CO)C(=O)c2cccc(NC(=O)c3ccncc3)c2O[C@H]1CN(C)Cc1ccc2c(c1)OCO2` was run?
A: inactive: 0.989

Q: With `Clc1nccc2ccccc12` as the compound, how does the relative growth read?
A: inactive: 1.02

Q: For `COc1ccc(S(=O)(=O)N(C)C[C@@H]2Oc3ccc(NC(=O)CCC(F)(F)F)cc3CC(=O)N([C@H](C)CO)C[C@H]2C)cc1`, which relative growth is on record?
A: inactive: 0.977

Q: How did the relative growth turn out when `CCS(=O)(=O)Nc1ccc2c(c1)/C(=C(/Nc1ccc(CN3CCCCC3)cc1)c1ccccc1)C(=O)N2` was run?
A: inactive: 0.951

Q: `COc1ccc(S(=O)(=O)N(C)C[C@@H]2Oc3c(NS(=O)(=O)c4ccccc4)cccc3C(=O)N([C@H](C)CO)C[C@H]2C)cc1` was tested. Which relative growth did it give?
A: inactive: 1.03

Q: With `C[C@@H]1CN([C@H](C)CO)C(=O)Cc2cc(NS(C)(=O)=O)ccc2O[C@@H]1CN(C)S(=O)(=O)c1ccccc1` as the compound, how does the relative growth read?
A: inactive: 0.986

Q: How did the relative growth turn out when `CS(=O)(=O)CCC/C(=N\OS(=O)(=O)O)S[C@@H]1O[C@H](CO)[C@@H](O)[C@H](O)[C@H]1O` was run?
A: inactive: 1.03

Q: Which relative growth does the source give for `Cc1noc(C)c1S(=O)(=O)N(C)C[C@H]1OCCCC[C@H](C)Oc2ccc(NC(=O)Nc3ccc(C(F)(F)F)cc3)cc2C(=O)N([C@@H](C)CO)C[C@@H]1C` here?
A: inactive: 1.04

Q: For `C[C@@H]1CN([C@H](C)CO)C(=O)c2cc(NC(=O)CCCN(C)C)ccc2O[C@@H]1CN(C)S(=O)(=O)c1cn(C)cn1`, which relative growth is on record?
A: inactive: 0.965

Q: How did the relative growth turn out when `NS(=O)(=O)Cc1ccccc1F` was run?
A: inactive: 0.916

Q: Which relative growth does the source give for `C[C@@H]1CCCCO[C@@H](CN(C)Cc2ccc(C(=O)O)cc2)[C@@H](C)CN([C@H](C)CO)C(=O)c2cc(NC(=O)NC3CCCCC3)ccc2O1` here?
A: inactive: 0.986

Q: For `C[C@@H]1CN([C@H](C)CO)C(=O)c2cc(C3=CCCC3)cnc2O[C@@H]1CN(C)S(=O)(=O)c1cn(C)cn1`, which relative growth is on record?
A: inactive: 0.999

Q: Which relative growth does the source give for `COCCNC(=O)C[C@@H]1C[C@H]2c3cc(NC(=O)CN(C)C)ccc3O[C@H]2[C@@H](CO)O1` here?
A: inactive: 1.01

Q: For `Cc1noc(C)c1NC(=O)N(C)C[C@H]1OCCCC[C@@H](C)Oc2ccc(NC(=O)c3ccccc3)cc2C(=O)N([C@@H](C)CO)C[C@@H]1C`, which relative growth is on record?
A: inactive: 0.991

Q: Which relative growth does the source give for `CN1CCN(C(=O)C[C@@H]2CC[C@H](NC(=O)Cc3ccccn3)[C@@H](CO)O2)CC1` here?
A: inactive: 1.03
